In patent US11572398B2, “GLP-1 derivatives and uses thereof” (Novo Nordisk A/S, priority 2014, dated 2023):
At least one compound was matched to its structure with a doubt left.

Test system: lean Sprague Dawley male rats
Experiment: Pharmacodynamic study in rats: acute effect on food intake and body weight
Type: in vivo
Conditions: change versus baseline

## CC[C@H](C)[C@H](NC(=O)[C@H](Cc1ccccc1)NC(=O)[C@H](CCC(=O)O)NC(=O)[C@H](CCCNC(=N)N)NC(=O)[C@H](C)NC(=O)[C@H](C)NC(=O)[C@H](CCC(N)=O)NC(=O)[C@H](CCC(=O)O)NC(=O)[C@H](CCC(=O)O)NC(=O)[C@H](CC(C)C)NC(=O)[C@H](Cc1ccc(O)cc1)NC(=O)[C@H](CO)NC(=O)[C@H](CO)NC(=O)[C@@H](NC(=O)[C@H](CC(=O)O)NC(=O)[C@H](CO)NC(=O)[C@@H](NC(=O)[C@H](Cc1ccccc1)NC(=O)[C@@H](NC(=O)CNC(=O)[C@H](CCC(=O)O)NC(=O)C(C)(C)NC(=O)[C@@H](N)Cc1c[nH]cn1)[C@@H](C)O)[C@@H](C)O)C(C)C)C(=O)N[C@@H](C)C(=O)N[C@@H](Cc1c[nH]c2ccccc12)C(=O)N[C@@H](CC(C)C)C(=O)N[C@H](C(=O)N[C@@H](CCCNC(=N)N)C(=O)NCC(=O)N[C@@H](CCCNC(=N)N)C(=O)N[C@@H](CCCCNC(=O)CN(CCCNC(=O)COCCOCCNC(=O)COCCOCCNC(=O)COCCOCCNC(=O)COCCOCCNC(=O)[C@@H](N)CCCCNC(=O)[C@@H](N)CCCCNC(=O)CCCCCCCCCCCCCCCCCCC(=O)O)CCCNC(=O)COCCOCCNC(=O)COCCOCCNC(=O)COCCOCCNC(=O)COCCOCCNC(=O)[C@@H](N)CCCCNC(=O)[C@@H](N)CCCCNC(=O)CCCCCCCCCCCCCCCCCCC(=O)O)C(=O)O)C(C)C [Example 2, N{Epsilon-37}-[2-[bis[3-[[2-[2-[2-[[2-[2-[2-[[2-[2-[2-[[2-[2-[2-[[(2S)-2-amino-6-[[(2S)-2-amino-6-(19-carboxynonadecanoylamino)hexanoyl]amino]hexanoyl]amino]ethoxy]ethoxy]acetyl]amino]ethoxy]ethoxy]acetyl]amino]ethoxy]ethoxy]acetyl]amino]ethoxy]ethoxy]acetyl]amino]propyl]amino]acetyl]-[Aib8,Glu22,Arg26,Arg34,Lys37]-GLP-1-(7-37)-peptide]
Single s.c. dose 100 nmol/kg
  % change in body weight 48 h: −12%
  % change in food intake 48 h: −83%

## CC[C@H](C)[C@H](NC(=O)[C@H](Cc1ccccc1)NC(=O)[C@H](CCC(=O)O)NC(=O)[C@H](CCCNC(=N)N)NC(=O)[C@H](C)NC(=O)[C@H](C)NC(=O)[C@H](CCC(N)=O)NC(=O)[C@H](CCC(=O)O)NC(=O)[C@H](CCC(=O)O)NC(=O)[C@H](CC(C)C)NC(=O)[C@H](Cc1ccc(O)cc1)NC(=O)[C@H](CO)NC(=O)[C@H](CO)NC(=O)[C@@H](NC(=O)[C@H](CC(=O)O)NC(=O)[C@H](CO)NC(=O)[C@@H](NC(=O)[C@H](Cc1ccccc1)NC(=O)[C@@H](NC(=O)CNC(=O)[C@H](CCC(=O)O)NC(=O)C(C)(C)NC(=O)CCc1cnc[nH]1)[C@@H](C)O)[C@@H](C)O)C(C)C)C(=O)N[C@@H](C)C(=O)N[C@@H](Cc1c[nH]c2ccccc12)C(=O)N[C@@H](CC(C)C)C(=O)N[C@H](C(=O)N[C@@H](CCCNC(=N)N)C(=O)NCC(=O)N[C@@H](CCCNC(=N)N)C(=O)N[C@@H](CCCCNC(=O)CN(CCCNC(=O)COCCOCCNC(=O)COCCOCCNC(=O)COCCOCCNC(=O)COCCOCCNC(=O)[C@@H](N)CCCCNC(=O)[C@@H](N)CCCCNC(=O)CCCCCCCCCCCCCCCCCCC(=O)O)CCCNC(=O)COCCOCCNC(=O)COCCOCCNC(=O)COCCOCCNC(=O)COCCOCCNC(=O)[C@@H](N)CCCCNC(=O)[C@@H](N)CCCCNC(=O)CCCCCCCCCCCCCCCCCCC(=O)O)C(=O)O)C(C)C [Example 4]
Single s.c. dose 50 nmol/kg
  % change in body weight 48 h: −11%
  % change in food intake 48 h: −56%

## CC[C@H](C)[C@H](NC(=O)[C@H](Cc1ccccc1)NC(=O)[C@H](CCC(=O)O)NC(=O)[C@H](CCCNC(=N)N)NC(=O)[C@H](C)NC(=O)[C@H](C)NC(=O)[C@H](CCC(N)=O)NC(=O)[C@H](CCC(=O)O)NC(=O)[C@H](CCC(=O)O)NC(=O)[C@H](CC(C)C)NC(=O)[C@H](Cc1ccc(O)cc1)NC(=O)[C@H](CO)NC(=O)[C@H](CO)NC(=O)[C@@H](NC(=O)[C@H](CC(=O)O)NC(=O)[C@H](CO)NC(=O)[C@@H](NC(=O)[C@H](Cc1ccccc1)NC(=O)[C@@H](NC(=O)CNC(=O)[C@H](CCC(=O)O)NC(=O)C(C)(C)NC(=O)[C@@H](N)Cc1c[nH]cn1)[C@@H](C)O)[C@@H](C)O)C(C)C)C(=O)N[C@@H](C)C(=O)N[C@@H](Cc1c[nH]c2ccccc12)C(=O)N[C@@H](CC(C)C)C(=O)N[C@H](C(=O)N[C@@H](CCCNC(=N)N)C(=O)NCC(=O)N[C@@H](CCCNC(=N)N)C(=O)N[C@@H](CCCCNC(=O)CN(CCCNC(=O)CCOCCOCCOCCOCCOCCOCCOCCOCCOCCOCCOCCOCCOCCOCCOCCOCCOCCOCCOCCOCCOCCOCCOCCOCCNC(=O)[C@@H](N)CCCCNC(=O)[C@@H](N)CCCCNC(=O)CCCCCCCCCCCCCCCCCCC(=O)O)CCCNC(=O)CCOCCOCCOCCOCCOCCOCCOCCOCCOCCOCCOCCOCCOCCOCCOCCOCCOCCOCCOCCOCCOCCOCCOCCOCCNC(=O)[C@@H](N)CCCCNC(=O)[C@@H](N)CCCCNC(=O)CCCCCCCCCCCCCCCCCCC(=O)O)C(=O)O)C(C)C [Example 6]
Single s.c. dose 100 nmol/kg
  % change in body weight 48 h: −13%
  % change in food intake 48 h: −77%

## CC[C@H](C)[C@H](NC(=O)[C@H](Cc1ccccc1)NC(=O)[C@H](CCC(=O)O)NC(=O)[C@H](CCCNC(=N)N)NC(=O)[C@H](C)NC(=O)[C@H](C)NC(=O)[C@H](CCC(N)=O)NC(=O)[C@H](CCC(=O)O)NC(=O)[C@H](CCC(=O)O)NC(=O)[C@H](CC(C)C)NC(=O)[C@H](Cc1ccc(O)cc1)NC(=O)[C@H](CO)NC(=O)[C@H](CO)NC(=O)[C@@H](NC(=O)[C@H](CC(=O)O)NC(=O)[C@H](CO)NC(=O)[C@@H](NC(=O)[C@H](Cc1ccccc1)NC(=O)[C@@H](NC(=O)CNC(=O)[C@H](CCC(=O)O)NC(=O)C(C)(C)NC(=O)[C@@H](N)Cc1c[nH]cn1)[C@@H](C)O)[C@@H](C)O)C(C)C)C(=O)N[C@@H](C)C(=O)N[C@@H](Cc1c[nH]c2ccccc12)C(=O)N[C@@H](CC(C)C)C(=O)N[C@H](C(=O)N[C@@H](CCCNC(=N)N)C(=O)NCC(=O)N[C@@H](CCCNC(=N)N)C(=O)N[C@@H](CCCCNC(=O)COCCOCCNC(=O)COCCOCCNC(=O)COCCOCCNC(=O)COCCOCCNC(=O)COCCOCCNC(=O)COCCOCCNC(=O)CN(CCCNC(=O)CC[C@H](NC(=O)CCCCCCCCCCCCCCCCCCC(=O)O)C(=O)O)CCCNC(=O)CC[C@H](NC(=O)CCCCCCCCCCCCCCCCCCC(=O)O)C(=O)O)C(=O)O)C(C)C [Example 26, N{Epsilon-37}-[2-[2-[2-[[2-[2-[2-[[2-[2-[2-[[2-[2-[2-[[2-[2-[2-[[2-[2-[2-[[2-[bis[3-[[(4S)-4-carboxy-4-(19-carboxynonadecanoylamino)butanoyl]amino]propyl]amino]acetyl]amino]ethoxy]ethoxy]acetyl]amino]ethoxy]ethoxy]acetyl]amino]ethoxy]ethoxy]acetyl]amino]ethoxy]ethoxy]acetyl]amino]ethoxy]ethoxy]acetyl]amino]ethoxy]ethoxy]acetyl]-[Aib8,Glu22,Arg26,Arg34,Lys37]-GLP-1-(7-37)-peptide]
Single s.c. dose 50 nmol/kg
  % change in body weight 48 h: −3%
  % change in food intake 48 h: −32%
